Reference: publication PMC8166750 (The Journal of Biological Chemistry, 2021)

Key:
Assay in all cases: ATP concentration-response, perforated patch clamp in HEK293 cells
[1] = target: T1, hP2X3^WT (Homo sapiens, UniProt P56373); assay type: cell-based
T1 sequence (P56373 1-397): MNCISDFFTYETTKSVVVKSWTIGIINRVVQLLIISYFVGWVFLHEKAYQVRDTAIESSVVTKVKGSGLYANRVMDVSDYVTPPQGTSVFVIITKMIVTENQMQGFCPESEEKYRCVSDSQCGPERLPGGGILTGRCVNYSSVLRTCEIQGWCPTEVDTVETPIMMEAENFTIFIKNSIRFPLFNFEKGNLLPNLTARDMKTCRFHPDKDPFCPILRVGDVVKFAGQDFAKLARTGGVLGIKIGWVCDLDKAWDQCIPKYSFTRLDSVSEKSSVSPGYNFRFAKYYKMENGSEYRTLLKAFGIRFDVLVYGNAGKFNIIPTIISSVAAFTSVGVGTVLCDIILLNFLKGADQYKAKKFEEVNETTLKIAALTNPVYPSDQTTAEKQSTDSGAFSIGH

[2] = target: T2, ckP2X7^WT (Gallus gallus, UniProt A0A8V1A1T0); assay type: cell-based, chicken (Gallus gallus domesticus)
T2 sequence (A0A8V1A1T0 15-574): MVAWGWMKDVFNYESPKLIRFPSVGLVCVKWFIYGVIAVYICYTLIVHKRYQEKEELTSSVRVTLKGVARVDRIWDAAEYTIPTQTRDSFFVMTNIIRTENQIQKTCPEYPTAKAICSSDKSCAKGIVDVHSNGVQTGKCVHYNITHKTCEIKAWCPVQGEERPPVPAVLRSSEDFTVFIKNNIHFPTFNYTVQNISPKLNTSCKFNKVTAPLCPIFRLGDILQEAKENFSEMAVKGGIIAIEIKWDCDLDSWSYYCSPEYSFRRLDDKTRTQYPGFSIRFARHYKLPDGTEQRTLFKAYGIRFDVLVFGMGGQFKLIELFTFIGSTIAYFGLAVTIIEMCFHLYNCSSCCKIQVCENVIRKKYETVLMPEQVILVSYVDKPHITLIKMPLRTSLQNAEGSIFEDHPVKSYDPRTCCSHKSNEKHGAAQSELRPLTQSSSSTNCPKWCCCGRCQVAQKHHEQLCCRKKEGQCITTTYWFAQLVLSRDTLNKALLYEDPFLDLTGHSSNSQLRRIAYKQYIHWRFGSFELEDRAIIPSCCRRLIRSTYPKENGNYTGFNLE

[3] = target: T3, pdP2X7^D121A (Ailuropoda melanoleuca, UniProt G1M6C4, D122A); assay type: cell-based, giant panda (Ailuropoda melanoleuca)
T3 sequence (G1M6C4 2-606 D122A): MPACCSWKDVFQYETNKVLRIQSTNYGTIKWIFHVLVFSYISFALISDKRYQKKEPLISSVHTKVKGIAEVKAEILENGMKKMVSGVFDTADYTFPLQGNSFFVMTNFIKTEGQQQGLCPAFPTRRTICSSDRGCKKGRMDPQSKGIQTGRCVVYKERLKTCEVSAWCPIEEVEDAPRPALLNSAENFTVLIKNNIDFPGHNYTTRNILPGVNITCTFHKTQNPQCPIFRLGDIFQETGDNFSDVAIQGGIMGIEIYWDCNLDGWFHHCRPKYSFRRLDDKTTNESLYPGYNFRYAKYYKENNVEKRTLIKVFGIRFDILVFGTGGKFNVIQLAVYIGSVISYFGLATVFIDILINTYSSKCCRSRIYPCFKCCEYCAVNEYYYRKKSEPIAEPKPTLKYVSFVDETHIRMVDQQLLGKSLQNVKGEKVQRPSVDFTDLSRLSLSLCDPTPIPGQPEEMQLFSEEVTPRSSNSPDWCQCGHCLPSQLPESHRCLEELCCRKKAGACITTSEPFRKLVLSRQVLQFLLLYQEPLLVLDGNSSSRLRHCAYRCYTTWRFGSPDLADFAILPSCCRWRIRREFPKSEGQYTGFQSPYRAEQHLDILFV

Q: Which results are given for `Nc1ncnc2c1ncn2[C@@H]1O[C@H](COP(=O)(O)OP(=O)(O)OP(=O)(O)O)[C@@H](O)[C@H]1O` [ATP]?
A: EC50 [1]: 0.45 ± 0.07 µM; nH (Hill coefficient) of ATP [2]: 1.14 ± 0.16; EC50 [3]: 96.6 ± 10.9 µM
